The supplement of paper PMC9446081
Screen size: about 39,000 compounds; about 220 (0.56%) showed activity. This is one part of the list.

System: Escherichia coli K-12 BW25113
Assay: relative growth (OD600 normalised to plate interquartile mean) (fraction); higher = less growth inhibition, active = 0.2 or less
Settings: 50 µM; LB; incubation time: overnight (16-24 h)
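Further: static incubation at 37 °C against the wild-type strain, values averaged over two biological replicates.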

SMILES	relative growth
C[C@H](CO)N1C[C@H](C)[C@@H](CN(C)S(C)(=O)=O)Oc2ccc(NS(C)(=O)=O)cc2CC1=O	inactive: 0.919
C[C@@H]1CN([C@@H](C)CO)S(=O)(=O)c2ccc(Br)cc2O[C@@H]1CN(C)S(=O)(=O)c1cn(C)cn1	inactive: 1
Cc1ccc(S(=O)(=O)N(C)C[C@H]2Oc3ccc(NS(=O)(=O)c4ccc(F)cc4)cc3C(=O)N([C@H](C)CO)C[C@@H]2C)cc1	inactive: 1.04
N=C(N)NCCS	inactive: 0.975
Nc1nc(=O)c2c([nH]1)NCC(CNc1ccc(C(=O)NC(CCC(=O)O)C(=O)O)cc1)=N2 (stereo not drawn)	inactive: 1.01
COc1cc(S(C)(=O)=O)ccc1Nc1nc2ccc(-c3ccc(NC(=O)[C@H](C)c4ccc(F)cc4)cc3)cn2n1	inactive: 1.06
CSc1ccc(-c2nnn(CC(N)=O)n2)cc1	inactive: 0.975
CC1CC2C3CCC4=CC(=O)C=CC4(C)C3(F)C(O)CC2(C)C1C(=O)CO (stereo not drawn)	inactive: 1.08
CC=CC(=O)N(CC)c1ccccc1C	inactive: 1.05
C[C@@H]1CCCCO[C@H](CN(C)Cc2ccc(C(=O)O)cc2)[C@@H](C)CN([C@H](C)CO)C(=O)c2cc(NC(=O)Nc3ccc4c(c3)OCO4)ccc2O1	inactive: 1.01
COc1ccc(NC(=O)N(C)C[C@H]2OCCCC[C@@H](C)Oc3ccc(NC(=O)c4ccncc4)cc3C(=O)N([C@H](C)CO)C[C@@H]2C)cc1	inactive: 1.01
O=S(=O)(OC[C@H]1O[C@@](COS(=O)(=O)[O][Al]([OH])[OH])(O[C@H]2O[C@H](COS(=O)(=O)[O][Al]([OH])[OH])[C@@H](OS(=O)(=O)[O][Al]([OH])[OH])[C@H](OS(=O)(=O)[O][Al]([OH])[OH])[C@H]2OS(=O)(=O)[O][Al]([OH])[OH])[C@@H](OS(=O)(=O)[O][Al]([OH])[OH])[C@@H]1OS(=O)(=O)[O][Al]([OH])[OH])[O][Al]([OH])[OH].[OH][Al]([OH])[OH].[OH][Al]([OH])[OH].[OH][Al]([OH])[OH].[OH][Al]([OH])[OH].[OH][Al]([OH])[OH].[OH][Al]([OH])[OH].[OH][Al]([OH])[OH].[OH][Al]([OH])[OH]	inactive: 0.972
Cl.Cl.Cl.NCCCCNCCCN	inactive: 0.932
COc1ccc2c3c(n(c2c1)C)[C@H](CO)N(C[C@]13CN(C1)S(=O)(=O)c1ccccc1)C(=O)c1cccnc1	inactive: 1
COc1ccccc1NC(=O)N(C)C[C@@H]1Oc2ncc(C#CC(C)C)cc2C(=O)N([C@@H](C)CO)C[C@H]1C	inactive: 1
C[C@@H]1CCCCO[C@H](CN(C)S(=O)(=O)c2cn(C)cn2)[C@@H](C)CN([C@@H](C)CO)C(=O)c2cc(NC(=O)c3ccncc3)ccc2O1	inactive: 0.965
CC(C)CC#Cc1ccc2c(c1)O[C@@H](CN(C)C(=O)Cc1cccnc1)[C@@H](C)CN([C@H](C)CO)S2(=O)=O	inactive: 1.01
C[C@@H]1CN([C@H](C)CO)C(=O)Cc2cc(NC(=O)Cc3cn(C)c4ccccc34)ccc2O[C@@H]1CN(C)C	inactive: 0.993
Nc1cc(=O)[nH]c(=O)n1-c1ccc(Cl)cc1	inactive: 0.9

SMILES	relative growth
C[C@H]1CCCCO[C@H](CN(C)C(=O)c2ccccc2)[C@@H](C)CN([C@@H](C)CO)C(=O)c2cc(NC(=O)Nc3ccc(C(F)(F)F)cc3)ccc2O1	inactive: 1.02
O=C(CN1CCOCC1)N[C@H]1CC[C@H](CCNC(=O)C2CCC2)O[C@@H]1CO	inactive: 0.947
C[C@H]1CN([C@@H](C)CO)C(=O)c2cccc(NC(=O)C3CC3)c2O[C@@H]1CN(C)C(=O)NC1CCCCC1	inactive: 1.03
Cc1noc(C)c1NC(=O)Nc1ccc2c(c1)C(=O)N([C@H](C)CO)C[C@H](C)[C@@H](CN(C)CC1CCCCC1)OCCCC[C@H](C)O2	inactive: 0.979
CC(C)NC(=O)N(C)C[C@H]1Oc2ccc(NC(=O)c3ccncc3)cc2CC(=O)N([C@@H](C)CO)C[C@H]1C	inactive: 0.979
O=C(O)/C=C(\CC(=O)O)C(=O)O	inactive: 0.979
C[C@@H]1CN([C@H](C)CO)C(=O)c2cc(NC(=O)Cn3cnnn3)ccc2O[C@@H]1CN(C)Cc1ccc(Cl)c(Cl)c1	inactive: 1.06
C[C@H]1CCCCO[C@H](CN(C)Cc2ccc(C(F)(F)F)cc2)[C@@H](C)CN([C@@H](C)CO)C(=O)c2cc(NC(=O)Nc3cccc4ccccc34)ccc2O1	inactive: 1.07
C[C@@H]1CN([C@@H](C)CO)C(=O)c2cc(NC(=O)C3CCCCC3)ccc2O[C@@H](C)CCCCO[C@@H]1CN(C)S(=O)(=O)c1ccc(F)cc1	inactive: 1
C[C@H]1CN([C@@H](C)CO)C(=O)Cc2cc(NS(C)(=O)=O)ccc2O[C@H]1CN(C)Cc1ccc(C(=O)O)cc1	inactive: 0.973
Cc1cc(C(=O)Nc2cccc3c2O[C@H](CN(C)S(C)(=O)=O)[C@H](C)CN([C@@H](C)CO)C3=O)n(C)n1	inactive: 0.997
Cc1ccccc1S(=O)(=O)N1C[C@@H](O)COC[C@H]2O[C@@H](CC(=O)NCCc3ccccc3)CC[C@@H]21	inactive: 1.04
CC(C)NC(=O)Nc1ccc2c(c1)C(=O)N([C@H](C)CO)C[C@@H](C)[C@@H](CN(C)Cc1ccc(Cl)c(Cl)c1)OCCCC[C@H](C)O2	inactive: 1.02
Cc1noc(C)c1S(=O)(=O)Nc1cccc2c1O[C@H](CN(C)S(C)(=O)=O)[C@H](C)CN([C@@H](C)CO)C2=O	inactive: 0.991
Cc1nnc(Nc2cccc([C@H]3CCCN(C(=O)CN)C3)n2)s1	inactive: 1.02
COC(=O)c1c2oc(c1C(=O)OC)C(=O)N[C@H](Cc1ccccc1)Cn1cc(nn1)[C@H](Cc1ccccc1)NC(=O)N[C@H](COC(=O)NCCCCCC(=O)NO)CC2	inactive: 1.04
C[C@@H]1CN([C@H](C)CO)C(=O)c2cc(NC(=O)c3ccccc3)ccc2O[C@@H](C)CCCCO[C@@H]1CN(C)CC1CCCCC1	inactive: 0.981
COCC#Cc1ccc2c(c1)O[C@H](CN(C)C(=O)Nc1ccc(OC)cc1)[C@@H](C)CN([C@H](C)CO)S2(=O)=O	inactive: 0.996
Cc1ccc(S(=O)(=O)Nc2ccc3c(c2)C(=O)N([C@@H](C)CO)C[C@H](C)[C@@H](CN(C)C(=O)Cc2ccccc2)OCCCC[C@@H](C)O3)cc1	inactive: 1.01
